Results: PubChem BioAssay AID504332 (National Center for Advancing Translational Sciences (NCATS), 2011)
“And” between values parts separate entries of the source, which are not always exact repeats. Equal values may be shown once. Hit rate of the full screen: of about 350,000 compounds, about 31,000 (8.9%) were called active. This list was built around the results that the source calls inconclusive (neither active nor inactive); the mix of calls is not that of the screen. Calls follow the shape of the dose curve; as a rule, active = well fitted inhibition curve with a large enough effect; inconclusive = small, poorly fitted or top-dose-only effect; inactive = no such curve, though single readings can be large or run the other way. Potencies of inconclusive entries are doubtful fits and often do not repeat. Where a SMILES comes first, the peptide text is derived from it. The star is where a group is joined. Cbz = O=C(OCc1ccccc1)*
% is scaled to controls: 0 for no effect and ±100 for the full control effect; potency is read from the fitted curve at half-maximal effect; tags tell the direction and shape of the fitted curve.
Also: nearly all actives have a fitted effect of over 75% in size.

These molecules were tested against Histone-lysine N-methyltransferase EHMT2 (Homo sapiens) (UniProt Q96KQ7) (assay: qHTS Assay for Inhibitors of Histone Lysine Methyltransferase G9a). Details: G9a H3K9 monomethylation, AlphaScreen, 2 h; activity, negative = inhibition: at 59 µM (top of the series) unless noted.
Sequence of UniProt Q96KQ7 (Q96KQ7 whole entry, looked up): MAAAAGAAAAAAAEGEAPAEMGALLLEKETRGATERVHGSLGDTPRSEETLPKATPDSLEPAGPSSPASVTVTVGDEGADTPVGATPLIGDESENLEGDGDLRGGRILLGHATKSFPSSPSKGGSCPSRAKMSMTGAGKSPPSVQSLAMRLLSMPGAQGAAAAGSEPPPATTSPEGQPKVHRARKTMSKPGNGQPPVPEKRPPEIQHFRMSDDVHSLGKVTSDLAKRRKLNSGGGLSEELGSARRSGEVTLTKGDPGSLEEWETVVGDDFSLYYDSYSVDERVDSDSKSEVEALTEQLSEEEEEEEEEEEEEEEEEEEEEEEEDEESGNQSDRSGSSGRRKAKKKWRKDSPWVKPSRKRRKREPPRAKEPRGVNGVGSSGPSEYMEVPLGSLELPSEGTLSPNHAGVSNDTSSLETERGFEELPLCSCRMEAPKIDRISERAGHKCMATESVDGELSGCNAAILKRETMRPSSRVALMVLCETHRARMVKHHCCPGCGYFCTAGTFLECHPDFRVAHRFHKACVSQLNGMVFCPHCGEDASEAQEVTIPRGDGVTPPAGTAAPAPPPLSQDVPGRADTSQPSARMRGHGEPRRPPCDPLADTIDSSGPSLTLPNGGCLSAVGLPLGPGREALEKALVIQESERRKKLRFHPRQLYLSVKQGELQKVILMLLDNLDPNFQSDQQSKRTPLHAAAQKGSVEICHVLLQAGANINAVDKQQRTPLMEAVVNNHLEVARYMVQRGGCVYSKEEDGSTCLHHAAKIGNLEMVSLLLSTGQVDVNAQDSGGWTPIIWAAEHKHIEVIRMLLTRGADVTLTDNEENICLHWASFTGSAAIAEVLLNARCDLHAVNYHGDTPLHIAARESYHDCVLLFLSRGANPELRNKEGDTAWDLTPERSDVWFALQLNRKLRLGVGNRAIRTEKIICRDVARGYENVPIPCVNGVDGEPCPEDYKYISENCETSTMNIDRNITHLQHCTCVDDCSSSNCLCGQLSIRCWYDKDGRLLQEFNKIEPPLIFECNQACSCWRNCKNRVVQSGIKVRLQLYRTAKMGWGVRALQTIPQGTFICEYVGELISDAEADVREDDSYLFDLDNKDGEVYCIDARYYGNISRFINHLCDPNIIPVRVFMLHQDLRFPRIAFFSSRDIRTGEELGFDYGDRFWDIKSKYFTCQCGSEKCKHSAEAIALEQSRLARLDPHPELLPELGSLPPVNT
How it was run: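 Compounds were preincubated with 20 nM G9a for 15 min, after which biotinylated H3K9 peptide (500 nM) and SAM (20 uM) started a 2 h room-temperature reaction. Monomethylated product was quantified by antibody-based AlphaScreen chemiluminescence.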
For O=S(=O)(c1ccc(-c2cc(C(F)(F)F)on2)s1)N1CCN(c2cccc(Cl)c2)CC1, the Potency was inconclusive: 0.251 µM [inhibitor, partial curve, poor fit].
In the case of CCCCn1nnnc1NCc1ccc(N(CC)CC)cc1, the activity, negative = inhibition is reported as inconclusive: -80.3% [inhibitor].
With Cc1ccc(Oc2ccc(NC(=O)C3=CC=CN4CCS(=O)(=O)N=C34)cc2)cc1 the activity, negative = inhibition was inactive: -37.7% [at 12.7 µM].
For O=C(CN1CCN(C(=O)c2ccco2)CC1)Nc1cc(Cl)ccc1Cl, the activity, negative = inhibition was inactive: -9.87% [at 0.0925 µM].
In the case of CCc1nc2ccc(C(=O)NCCc3ccc(OC)c(OC)c3)cc2nc1CC, the Potency is reported as “inactive”.
C=CCN1CN(S(=O)(=O)c2ccc(OC)cc2)c2nc3ccccc3nc21 was tested, and the Potency was active: 7.08 µM.
In the case of O=C(COC(=O)CCc1c[nH]c(=O)[nH]1)Nc1ccccc1, the Potency is reported as inconclusive: 56.2 µM [inhibitor, partial curve, poor fit].
In the case of CC(=O)Nc1ccc(C(=O)OCC(=O)Nc2c(F)cccc2F)cc1, the “activity, negative = inhibition” value is reported as inactive: 29.1% [at 102 µM].
With COC(=O)c1ccc(NC(=O)c2ccccc2SC)cc1 the Potency was inconclusive: 0.891 µM [inhibitor, full curve, poor fit].
COC(=O)C1=C(C)NC(C)=C(C(=O)OC)C1c1cc2ccc(C)cc2[nH]c1=O was tested, and the Potency was inconclusive: 79.4 µM [inhibitor, single point].
In the case of COc1ccccc1C(=O)NCC(c1ccco1)N1CCc2ccccc21 (centres undefined), the Potency is reported as active: 50.1 µM.
In the case of CCCCn1c(=O)[nH]c(=O)c2c1nc(-c1ccc(-c3ccccc3Br)o1)n2CC, the Potency is reported as active: 10 µM.
In the case of CC(C)(C)C1CCC(C(=O)OCC(=O)Nc2ccc3[nH]c(=O)[nH]c3c2)CC1 (centres undefined), the Potency is reported as active: 44.7 µM.
For Cc1ccc(NS(=O)(=O)c2ccc(Br)s2)nc1, the Potency was active: 39.8 µM.
In the case of O=C(CSc1ccccn1)N1CCN(S(=O)(=O)c2ccc(Cl)cc2)CC1, the Potency is reported as inconclusive: 79.4 µM [inhibitor, partial curve, poor fit].
With CC(=O)N1CCN(C(=S)Nc2ccc(SC(F)F)cc2)CC1 the “activity, negative = inhibition” value was inactive: 3.14% [at 102 µM].
With Cc1ccc(OCC(=O)OC2CCCN(C)C2)cc1 (centres undefined) the activity, negative = inhibition was inactive: 0.948% [at 0.501 µM].
With CCOC(=O)c1cnc2c(Cl)cccc2c1NCCN(C)C the Potency was inconclusive: 79.4 µM [inhibitor, partial curve, poor fit].
With Cc1ccc(NC(=O)CC2SC(=NC3CCCCC3)NC2=O)cc1 (centres undefined) the Potency was active: 89.1 µM.
In the case of C(=N\NC1=Nc2cccc3cccc1c23)/c1cccnc1, the Potency is reported as inconclusive: 44.7 µM [inhibitor, partial curve].
For COCCn1c(C)cc(O)c(C(c2ccccc2OC)N2CCCCC2)c1=O (centres undefined), the “activity, negative = inhibition” value was inactive: 5.61%.
In the case of CCCn1c2ccccc2c2nnc(SC(CC)C(=O)Nc3sc4c(c3C#N)CCCC4)nc21 (centres undefined), the Potency is reported as inconclusive: 15.8 µM [inhibitor, partial curve, poor fit].
In the case of Cc1ccc2[nH]c3c(N4CCc5ccccc5C4)ncnc3c2c1, the Potency is reported as inconclusive: 79.4 µM [inhibitor, single point].
For CC(Sc1nnc(Nc2ccccc2)s1)C(=O)Nc1nc(-c2ccccc2)cs1 (centres undefined), the Potency was inconclusive: 25.1 µM [inhibitor, partial curve, poor fit].
With Cc1ccc2nc(C)c(CN3CCN(c4ccc([N+](=O)[O-])cc4Cl)CC3)n2c1 the Potency was active: 50.1 µM.
COc1cc(OC)cc(C(=O)N/N=C/c2ccc(OC)c(COc3ccc4ccccc4c3)c2)c1 was tested, and the Potency was inconclusive: 6.31 µM [inhibitor, single point].
CN1C(=S)SC(N(O)C(=O)NC2CCCCC2)C1(C)C (centres undefined) was tested, and the Potency was inconclusive: 7.94 µM [inhibitor, full curve].
For Cc1ccc(C)c(N2CCN(C(=O)c3cccn3-c3nnc(N4CCCCC4)s3)CC2)c1, the Potency was inconclusive: 31.6 µM [inhibitor, partial curve, poor fit].
In the case of CCOC(=O)c1cnc2nc(C(F)(F)F)[nH]n2c1=O, the Potency is reported as inconclusive: 2.82 µM [inhibitor, partial curve, poor fit].
For COc1cccc(CNC(=O)c2cc3c(=O)n(C)c4ccccc4c3n2C)c1, the “activity, negative = inhibition” value was inactive: -7.72%.
Clc1ccc(OCCn2ccnc2)c(Cl)c1 was tested, and the Potency was inconclusive: 6.31 µM [inhibitor, single point].
In the case of Cc1ccc(-c2nc3ncccn3c2Nc2ccccc2C)o1, the Potency is reported as inconclusive: 39.8 µM [inhibitor, single point].
With CC(=O)NC1(c2ccc(F)cc2)CCN(C(=O)Nc2ccc(F)cc2F)CC1 the activity, negative = inhibition was inactive: -7.3% [at 12.7 µM].
For O=C1NC(c2cccc([N+](=O)[O-])c2)=CCN1c1ccccc1O, the Potency was active: 50.1 µM and active: 18.9 µM.
In the case of O=C(Nc1nc2cc3c(cc2s1)OCO3)C1=COCCO1, the Potency is reported as inconclusive: 89.1 µM [inhibitor, partial curve, poor fit].
In the case of COc1ccc(N2C(=O)CC(Sc3nc(C)cc(C)c3C#N)C2=O)cc1 (centres undefined), the Potency is reported as inconclusive: 39.8 µM [inhibitor, single point].
CN(C)c1ncnc2ccc(-c3cccnc3)cc12 was tested, and the activity, negative = inhibition was inactive: 5.46% [at 0.501 µM].
With O=S1(=O)CC2NC(=S)N(c3cccc(Br)c3)C2C1 (centres undefined) the “activity, negative = inhibition” value was inactive: 3.7% [at 102 µM].
For COC(=O)c1sc2cc(=O)n(-c3cccc(C(F)(F)F)c3)nc2c1O, the Potency was inconclusive: 50.1 µM [inhibitor, partial curve].
CCn1c(SCC(=O)N2CCc3ccccc3C2)nc2sc(C)c(C)c2c1=O was tested, and the Potency was inconclusive: 89.1 µM [inhibitor, single point].
COc1ccc(C(=O)N/N=C/c2ccc(N3CCOCC3)s2)cc1OC was tested, and the activity, negative = inhibition was inactive: 43.8% [at 12.7 µM].
With COc1ccccc1C(=O)NC1CCN(C(=O)Nc2ccc(C)cc2)CC1 the “activity, negative = inhibition” value was inactive: 9.94% [at 102 µM].
With COc1ccc2cc(CNc3ccccc3)c(=O)n(CC(=O)Nc3ccc(C)cc3C)c2c1 the “activity, negative = inhibition” value was inactive: -1.51%.
In the case of O=C(O)COc1cccc2ccccc12, the Potency is reported as inconclusive: 4.47 µM [inhibitor, partial curve, poor fit].
For COc1ccc(C2C(C(=O)c3ccco3)=C(O)C(=O)N2CC2CCCO2)c(OC)c1 (centres undefined), the Potency was inconclusive: 20 µM [inhibitor, single point].
With CC(C)[C@H](NC(=O)OCc1ccccc1)C(=O)N[C@@H](Cc1c[nH]c2ccccc12)C(=O)O (Cbz-Val-Trp-OH) the activity, negative = inhibition was inconclusive: -112% [inhibitor] [at 2.33 µM].
For CCOC(=O)c1ccc(NC(=O)Cn2nnc(-c3ccccc3)n2)cc1, the Potency was inconclusive: 63.1 µM [inhibitor, partial curve, poor fit].
Cc1ccc(N2CCN(C(=O)C3CCC(CNS(=O)(=O)c4ccc(Br)s4)CC3)CC2C)cc1 (centres undefined) was tested, and the “activity, negative = inhibition” value was inactive: -20.9%.
For O=C(CSc1nc2c(c(=O)n1-c1ccc(F)cc1)SCC2)NCc1ccco1, the Potency was inconclusive: 79.4 µM [inhibitor, single point].
In the case of CCOc1ccc(C(=O)Nc2ccncc2)cc1, the Potency is reported as inconclusive: 89.1 µM [inhibitor, single point].
For Cc1ccc(NC(=O)Cn2c(=O)c(C(F)(F)F)nc3ccccc32)c(C)c1, the “activity, negative = inhibition” value was inactive: 6.69%.
Cc1ccc2c(c1)c1nnc(SCC(=O)Nc3cccc(Cl)c3C)nc1n2CC(=O)O was tested, and the Potency was inconclusive: 89.1 µM [inhibitor, single point].
CCN(CC)CCN(C(=O)c1ccccc1OC)c1nc2ccc(F)cc2s1 was tested, and the Potency was inconclusive: 31.6 µM [inhibitor, partial curve, poor fit].
CCN(CC)S(=O)(=O)c1ccc2c(c1)nc(SCC(=O)NC1CC1)n2-c1ccccc1OC was tested, and the Potency was inconclusive: 3.16 µM [inhibitor, single point].
For Cc1[nH][nH]c(=O)c1C(c1cc(Br)ccc1O)c1c(C)[nH][nH]c1=O, the Potency was inconclusive: 79.4 µM [inhibitor, single point].
In the case of CCCCn1c(N)c(N(CCOC)C(=O)CSCc2cccc(C)c2)c(=O)[nH]c1=O, the Potency is reported as inconclusive: 89.1 µM [inhibitor, single point].
CCOC(=O)CSc1nc(N)c(C#N)cc1C#N was tested, and the Potency was inconclusive: 79.4 µM [inhibitor, single point].
For CCOC(=O)C1=C(CC)OC(N)=C(C#N)C1c1ccsc1 (centres undefined), the Potency was active: 56.2 µM.
In the case of Clc1ccccc1CSc1nnc(Cn2cnc3ccccc32)n1-c1ccccc1, the Potency is reported as inconclusive: 89.1 µM [inhibitor, single point].
For Cc1cccc(/C=C2/Sc3ccc(C(=O)NCCN4CCCC4)cc3NC2=O)c1, the Potency was active: 35.5 µM.
Cc1cc(NC2CCCCC2)nc(N2CCOCC2)n1 was tested, and the “activity, negative = inhibition” value was inactive: 26.1%.
With Cc1nc(SCC(=O)c2ccccc2)[nH]c(=O)c1Oc1ccc(Cl)cc1 the Potency was inconclusive: 35.5 µM [inhibitor, partial curve, poor fit].
For CC(=O)Nc1ccc(S(=O)(=O)Oc2ccc(/C=N/NC(=O)c3ccc(Cl)cc3)cc2)cc1, the “activity, negative = inhibition” value was inactive: -5.98%.
With COc1ccc(C2CCCN2C(=O)Nc2ccc(C)c(C)c2)cc1OC (centres undefined) the Potency was inconclusive: 79.4 µM [inhibitor, single point].
In the case of COc1ccc(NC(=O)CN(c2ccc([N+](=O)[O-])cc2)S(=O)(=O)c2ccccc2)cc1, the Potency is reported as inconclusive: 1.58 µM [inhibitor, single point].
CCOc1ccc(/C=C2/SC(=S)N(C(C(=O)O)c3ccccc3)C2=O)cc1OCC (centres undefined) was tested, and the Potency was active: 44.7 µM.
Cc1ccc2nc(-c3ccccc3)cc(C(=O)O)c2c1 was tested, and the Potency was inconclusive: 0.562 µM [inhibitor, full curve].
In the case of COc1cnc(-c2ccccn2)nc1N(C)c1ccccc1, the Potency is reported as inconclusive: 0.501 µM [inhibitor, partial curve, poor fit].
For CCS(=O)(=O)N1CCCC(C(=O)NC2CCCC2)C1 (centres undefined), the Potency was inconclusive: 10 µM [inhibitor, partial curve, poor fit].
